According to PMC12820563, “FoxP3 forms a head-to-head dimer in vivo and stabilizes its multimerization on adjacent microsatellites”:
Some of the results follow.

Molecular target: T1, MBP-FoxP1dN (Mus musculus, UniProt P58462 326-579)
T1 sequence: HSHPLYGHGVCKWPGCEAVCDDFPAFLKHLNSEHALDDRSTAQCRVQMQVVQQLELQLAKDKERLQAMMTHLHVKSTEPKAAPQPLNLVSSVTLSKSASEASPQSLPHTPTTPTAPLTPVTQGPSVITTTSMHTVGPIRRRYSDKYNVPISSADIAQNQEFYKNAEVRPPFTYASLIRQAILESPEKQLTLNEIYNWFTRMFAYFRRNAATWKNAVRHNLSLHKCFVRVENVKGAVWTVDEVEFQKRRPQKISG
Test: PD-seq (MBP pull-down with sequencing); 20 mM Tris-HCl pH 7.5, 100 mM NaCl, 1.5 mM MgCl2, 0.4 uM protein, 0.1 uM dsDNA library, 30 min, room temperature, amylose pull-down; high values mean tight binding
Conditions: protein: recombinant; tags: His6-MBP; chain copies: 2; dsDNA, one strand shown
Procedure, shortened: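 Binding is reads-per-million enrichment of pull-down over input, with replicates pooled. It comes from 30 min room-temperature incubation in Tris pH 7.5 buffer with NaCl and MgCl2 of 0.4 µM His6-MBP-tagged, N-terminally truncated mouse FoxP3 or FoxP1 fragment from E. coli with 0.1 µM Klenow-filled degenerate double-stranded DNA library, followed by amylose resin capture, three washes and Illumina sequencing of the released DNA.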

| Sequence | binding signal |
| --- | --- |
| GATGATTGTTCTCCCAGCTGATGAATTGGTTTCCTCGAGTAAACAAATTTTCCTAATCTTTCTGTTCAAGCGCCATCTAC | 0.889 RPM ratio (pull-down/input) |
| GATGATTGTTCTCCCAGCTGATGAATTACGGCGTTCGAGTAAACAAATTTTCCTAATCTTTCTGTTCAAGCGCCATCTAC | 1.01 RPM ratio (pull-down/input) |
| GATGATTGTTCTCCCAGCTGATGAATTCGAGTACTCGAGTAAACAAATTTTCCTAATCTTTCTGTTCAAGCGCCATCTAC | 0.869 RPM ratio (pull-down/input) |
| GATGATTGTTCTCCCAGCTGATGAATTTATCAATTCGAGTAAACAAATTTTCCTAATCTTTCTGTTCAAGCGCCATCTAC | 1.16 RPM ratio (pull-down/input) |
| GATGATTGTTCTCCCAGCTGATGAATTCGCGCCCTCGAGTAAACAAATTTTCCTAATCTTTCTGTTCAAGCGCCATCTAC | 0.812 RPM ratio (pull-down/input) |
| GATGATTGTTCTCCCAGCTGATGAATTCAAGCAATCGAGTAAACAAATTTTCCTAATCTTTCTGTTCAAGCGCCATCTAC | 1.13 RPM ratio (pull-down/input) |
| GATGATTGTTCTCCCAGCTGATGAATTTTCGCCGTCGAGTAAACAAATTTTCCTAATCTTTCTGTTCAAGCGCCATCTAC | 0.852 RPM ratio (pull-down/input) |
| GATGATTGTTCTCCCAGCTGATGAATTTGTTTTATCGAGTAAACAAATTTTCCTAATCTTTCTGTTCAAGCGCCATCTAC | 1.78 RPM ratio (pull-down/input) |
| GATGATTGTTCTCCCAGCTGATGAATTACTTAAGTCGAGTAAACAAATTTTCCTAATCTTTCTGTTCAAGCGCCATCTAC | 1.09 RPM ratio (pull-down/input) |
| GATGATTGTTCTCCCAGCTGATGAATTGTCCCGTTCGAGTAAACAAATTTTCCTAATCTTTCTGTTCAAGCGCCATCTAC | 0.975 RPM ratio (pull-down/input) |
| GATGATTGTTCTCCCAGCTGATGAATTTTGCAAATCGAGTAAACAAATTTTCCTAATCTTTCTGTTCAAGCGCCATCTAC | 1.09 RPM ratio (pull-down/input) |
| GATGATTGTTCTCCCAGCTGATGAATTACGTCGGTCGAGTAAACAAATTTTCCTAATCTTTCTGTTCAAGCGCCATCTAC | 0.929 RPM ratio (pull-down/input) |
| GATGATTGTTCTCCCAGCTGATGAATTAGTAGCATCGAGTAAACAAATTTTCCTAATCTTTCTGTTCAAGCGCCATCTAC | 1.23 RPM ratio (pull-down/input) |
| GATGATTGTTCTCCCAGCTGATGAATTACAGGAATCGAGTAAACAAATTTTCCTAATCTTTCTGTTCAAGCGCCATCTAC | 1.18 RPM ratio (pull-down/input) |
| GATGATTGTTCTCCCAGCTGATGAATTAAGACAATCGAGTAAACAAATTTTCCTAATCTTTCTGTTCAAGCGCCATCTAC | 1.29 RPM ratio (pull-down/input) |
| GATGATTGTTCTCCCAGCTGATGAATTGGAGTGTTCGAGTAAACAAATTTTCCTAATCTTTCTGTTCAAGCGCCATCTAC | 0.947 RPM ratio (pull-down/input) |
| GATGATTGTTCTCCCAGCTGATGAATTTACTCTGTCGAGTAAACAAATTTTCCTAATCTTTCTGTTCAAGCGCCATCTAC | 1.22 RPM ratio (pull-down/input) |
| GATGATTGTTCTCCCAGCTGATGAATTATGTGGTTCGAGTAAACAAATTTTCCTAATCTTTCTGTTCAAGCGCCATCTAC | 1.07 RPM ratio (pull-down/input) |
